Test results taken from PubChem BioAssay AID1346428 (National Center for Advancing Translational Sciences (NCATS), 2018).
Where “and” joins values, the source holds several entries; their conditions need not be identical. Identical values can stand only once. Out of some 48,000 compounds screened, about 1,200 (2.5%) were called active. About 2% were inconclusive and are not listed.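 Rule for the calls: active = activation of at least 60% and not above a set upper limit (about 1 call in 100 departs from these limits); inconclusive = activation of 40% to 60%, or above that upper limit; inactive = activation under 40%.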 The list shows a part of the results.

Each compound was assayed against Probable G-protein coupled receptor 32 (Homo sapiens) (UniProt O75388) (assay: qHTS for Agonists of Human Resolvin D1 Receptor DRV1). Conditions: CHO-K1 GPR32 beta-arrestin PathHunter luminescence, 90 min; at 76.9 µM; hits give high values; zero percent set by DMSO-only wells.
How it was run: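 CHO-K1 cells stably expressing ProLink-tagged GPR32 and Enzyme Activator-tagged beta-arrestin were seeded at 2,500 cells/well overnight, exposed to compounds for 90 min at 37 °C, then read by beta-Gal complementation chemiluminescence after 1 h detection reagent.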
Note: 0% is about no effect.

UniProt O75388, sequence (O75388 whole entry, looked up): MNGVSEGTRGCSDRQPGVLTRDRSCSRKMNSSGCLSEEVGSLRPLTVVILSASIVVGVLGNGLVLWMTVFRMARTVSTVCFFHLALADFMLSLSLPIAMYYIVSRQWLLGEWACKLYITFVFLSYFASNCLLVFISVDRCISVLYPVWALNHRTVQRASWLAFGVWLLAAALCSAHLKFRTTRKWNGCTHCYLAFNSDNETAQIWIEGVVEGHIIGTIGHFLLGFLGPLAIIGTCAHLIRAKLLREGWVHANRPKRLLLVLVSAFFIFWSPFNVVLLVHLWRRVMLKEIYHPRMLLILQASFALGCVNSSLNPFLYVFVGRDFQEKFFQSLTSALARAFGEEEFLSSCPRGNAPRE

activation, inactive:
Cc1cccc(Cn2nc(C)n3c(cc4cc(C)ccc43)c2=O)c1 4.24%
Cc1ccccc1OCC(=O)Nc1sc2c(c1C(=O)OC(C)C)CCCC2 -8.18%
CCOc1ccc(C(=O)NCCc2sc(-c3ccc(OC)c(OC)c3)nc2C)cc1 -6.95%
Cc1ccc(C)c(N2CCN(c3ccc4cc(S(=O)(=O)N5CCC(C)CC5)ccc4n3)CC2)c1 -13.3%
Cc1ccc(C)c(N2CCN(C(=O)c3cc(C)nc4c3c(C)nn4-c3cccc(F)c3)CC2)c1 -20.7%
CCOc1ccc(-n2c(SCC(=O)N3CCC(C)CC3)nc3c([nH]c4ccccc43)c2=O)cc1 -1.21%
CCn1c(C(=O)NCc2ccc(OC(C)C)cc2)cc2oc3ccccc3c21 -26.5%
Cc1oc2ccc(O)c(CN3CCN(C)CC3)c2c1C(=O)Nc1cccc(Cl)c1C -1.76%
CCCCCCCCCCCCOCCO 13.5%
Cc1ccc2c(c1)c(=O)c1ccccc1n2CCCC(=O)Nc1cc(Cl)ccc1C -0.242%
Cc1oc(-c2cccc(Cl)c2)nc1CS(=O)(=O)CC(=O)NCc1ccccc1Cl 19.1%
CCCOc1ccc(C(=O)Nc2cc3c(cc2N2CCOCC2)n(C)c(=O)n3C)cc1 -22.6%
Cc1cccc(N2C(=O)C(CC(=O)Nc3ccc(Cl)cc3)N(Cc3ccco3)C2=O)c1 (stereo not drawn) -26.6%
Cc1cccc(-n2c(=O)c3c(c4cc(C)ccc4n3C)n(CC(=O)NCC3CCCO3)c2=O)c1 (stereo not drawn) -8.6%
COc1ccc2c(CNCc3cccs3)c(C(=O)O)n(Cc3ccc(C)cc3)c2c1 12.3%
Cc1nn(CC(=O)O)c(=O)c2cc3cc(F)ccc3n12 2.24%
COc1ccccc1NC(=O)c1cc(S(=O)(=O)N2CCN(c3ccccc3Cl)CC2)ccc1F 1.89%
O=C(Nc1cc(Cl)cc(Cl)c1)c1ccc2c(c1)N(Cc1cccc(Cl)c1)C(=O)c1ccccc1S2=O (stereo not drawn) -5.13%
COC(=O)c1ccc(C2c3c(oc4ccccc4c3=O)C(=O)N2c2nc(C)c(C(=O)OC)s2)cc1 (stereo not drawn) -4.31%
CCC(=O)C1=C(c2ccc(Cl)cc2)N(C(=O)CC)n2c(C)nnc2S1 -66.5%
CCS(=O)(=O)c1ccc(O)c(Nc2cc(C)nc(SC)n2)c1 32.1%
O=C(CSc1oc(-c2ccco2)nc1S(=O)(=O)c1ccc(Br)cc1)c1ccccc1 -24.8%
Cc1ccc(S(=O)(=O)C(CNC(=O)c2ccc(F)c(F)c2)c2ccco2)cc1 (stereo not drawn) -4.54%
CCCCn1c(=O)c2oc3ccccc3c2n(Cc2cccc(F)c2)c1=O -18.2%
Cc1cc(C)cc(NC(=O)c2ccc3c(c2)nnn3C2CCCC2)c1 -33.9%
Cc1ccc(CNC(=O)CCN2C(=O)COc3ccc(C)cc32)cc1 -9.94%
CCc1nnc2c(Nc3cccc(F)c3)nc3ccc(C(=O)c4ccccc4)cc3n12 6.84%
CCOC(=O)c1cccc(NC(=O)c2cc3c(=O)n(C)c4ccccc4c3n2C)c1 -26.8%
CC(C)c1cnc2c(c1SCC(=O)Nc1ccc(OC(F)(F)F)cc1)c(=O)n(C)c(=O)n2C -10.3%
O=C(c1cc(-c2cccc(Cl)c2)on1)N1CCN(c2ccccc2)CC1 -4.1%
O=C(CCCN1C(=O)c2cccnc2Oc2ccc(Cl)cc21)NCc1ccccc1F -17.8%
CC1CCN(S(=O)(=O)c2nnc(NC(=O)c3ccc(C(C)C)cc3)s2)CC1 28.7%
CCN(CC)CCOC(=O)c1ccc(NC(=O)c2nn(C)c3c2COc2ccccc2-3)cc1 7.83%
Cc1ccc(NC2=C(CC(=O)O)C(c3ccc(F)cc3)N(c3ccc(C)cc3)C2=O)cc1 (stereo not drawn) -20.4%
COc1ccc(NC(=O)c2c(NCc3ccc(N(C)C)cc3)sc3c2CCC3)cc1 7.04%
COC(=O)C1=C(C)NC(C)=C(C(=O)OCCN(C)Cc2ccccc2)C1c1cccc([N+](=O)[O-])c1 (stereo not drawn) -8.76% and -44.6%
CCc1ccc(N2CCn3c2nc2c3c(=O)n(C/C=C/c3ccccc3)c(=O)n2C)cc1 -7.26%
Cc1ccc(CNC(=O)CC(C)CC2=NS(=O)(=O)c3ccccc3N2)cc1 (stereo not drawn) -0.4%
Cc1ccsc1CN(C(=O)c1oc2ccc(F)cc2c1C)C1CCS(=O)(=O)C1 (stereo not drawn) -26.5%
CCOc1ccccc1NC(=O)N(Cc1ccc(F)cc1)C1CCN(CC)CC1 -23.3%
Cc1ccc(NC(=O)C2CCCN2S(=O)(=O)c2cccc3nsnc23)c(C)c1 (stereo not drawn) 7.96%
CCOc1ccc(-c2nonc2NC(=O)c2oc3cc(C)c(C)cc3c2C)cc1OCC -4.42%
Cc1ccc(Nc2ncc(C(=O)N3CCN(c4ccc(F)cc4)CC3)c3ccccc23)cc1Cl -11.8%
COc1cccc(CNS(=O)(=O)c2cc3[nH]c(=O)c(=O)[nH]c3cc2C)c1 20.4%
CCc1ccc(NC(=O)c2ccc(F)c(S(=O)(=O)N3CCC4(CC3)OCCO4)c2)cc1 0.0534%
Cc1ccc(C)c(-n2c3nc(=O)[nH]c(=O)c-3cc3c(C)nn(-c4ccccc4)c32)c1 -2.39%
CCCCCn1c(=O)[nH]c2cc(C(=O)NCc3ccc(Cl)cc3)ccc2c1=O 2.8%
COc1ccccc1C(=O)NCCn1cc(SCc2ccc(C)cc2)c2ccccc21 -23%
CCC1CCc2nc3sc(C(=O)Nc4ccc(C)cc4)c(N)c3cc2C1 (stereo not drawn) -13.2%
COc1ccc(OC)c2sc(N3CCN(C(=O)c4ccc5c(c4)CCCC5)CC3)nc12 -4.21%
COc1ccc(C2CC(=O)N(Cc3ccc(F)cc3)c3ccccc3S2)cc1OC (stereo not drawn) 14.1%
O=C(CN1CCN(Cc2cccc(Cl)c2)C1=O)NCc1ccc(F)cc1 0.266%
CCN(c1ccccc1C)S(=O)(=O)c1ccc(N2CCCCS2(=O)=O)cc1 -11.4%
